Consider 30 molecules from the supplement of paper PMC9135407.

Values joined by “and” are separate entries in the source; they are usually repeats but may differ in a detail not shown here. Equal entries are not always repeated. Structures can show the parent of a compound that is named as a salt. In all, about 5,800 compounds went through this assay and about 620 (11%) showed activity.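 Rule for the calls: active = score above a cut-off or among the top three wells of a plate; in these data no inactive exceeds 0.85.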 This is a selection; strong and weak results do not stand in their true shares. Some results are limits rather than exact numbers.

The subject of the test is primary human hepatic stellate cells (donor 1). The test can be described thus: scaled lipid accumulation score (0 = DMSO-like, 1 = nortriptyline-like); higher = stronger HSC inactivation (lipid re-accumulation), active = hit call of the paper. The settings on record: 48 h.
Where [1] appears, read: library stock concentration: 10 mM.
The mark [2] stands for this setting: library stock concentration: 3.33 mM.
Where [3] appears, read: library stock concentration: 5.9 mM.
The mark [4] stands for this setting: library stock concentration: 2 mM.

For `Cc1cc(C)cc(C(=O)OC2C[C@H]3CC[C@@H](C2)N3C)c1` (stereo partly specified) [Tropanyl-3,5-dimethylbenzoate], the “scaled lipid accumulation score” value under setting [1] is inactive: 0.57.
As for `Oc1ccc2c3c1O[C@H]1c4[nH]c5ccccc5c4C[C@@]4(O)[C@@H](C2)N(CC2CC2)CC[C@]314` [Naltrindole HCl], the “scaled lipid accumulation score” value (library stock concentration: 4.8 mM) is inactive: 0.264.
Turning to `Oc1ccc2c3c1O[C@H]1c4[nH]c5ccccc5c4C[C@@]4(O)[C@@H](C2)N(CC2CC2)CC[C@]314` [Naltrindole], the “scaled lipid accumulation score” value under setting [1] was inactive: 0.713.
`CN(C)[C@@H]1C(=O)C(C(N)=O)=C(O)[C@@]2(O)C(=O)C3=C(O)c4c(O)cccc4[C@@](C)(O)[C@H]3C[C@@H]12` [Tetracycline HCl]: the “scaled lipid accumulation score” value runs as follows: under setting [2], inactive: ≤ 0; under setting [1], inactive: ≤ 0.
On to `CC(NC(C)(C)C)C(=O)c1cccc(Cl)c1` (stereo unspecified), for which the “scaled lipid accumulation score” value under setting [1] was inactive: 0.09.
On to `CC(NC(C)(C)C)C(=O)c1cccc(Cl)c1` (stereo unspecified) [Bupropion hydrochloride], for which the “scaled lipid accumulation score” value was inactive: ≤ 0. The “scaled lipid accumulation score” value under setting [1] is inactive: ≤ 0.
As to `CC(NC(C)(C)C)C(=O)c1cccc(Cl)c1` (stereo unspecified) [Bupropion], the “scaled lipid accumulation score” value (library stock concentration: 7.2 mM) was inactive: 0.39 and the “scaled lipid accumulation score” value under setting [1] was inactive: 0.07.
With `CC(NC(C)(C)C)C(=O)c1cccc(Cl)c1` (stereo unspecified) [Amfebutamone HCl], the “scaled lipid accumulation score” value by setting is: under setting [2], inactive: 0.025; under setting [1], inactive: ≤ 0.
`CC(NC(C)(C)C)C(=O)c1cccc(Cl)c1` (stereo unspecified) [Amfebutamone]: for the setting “library stock concentration: 8.3 mM”, the “scaled lipid accumulation score” value is inactive: ≤ -0.006.
As to `C=C/C=C\CC1=C(C)[C@@H](OC(=O)[C@@H]2[C@@H](/C=C(\C)C(=O)OC)C2(C)C)CC1=O.C=C/C=C\CC1=C(C)[C@@H](OC(=O)[C@@H]2[C@@H](C=C(C)C)C2(C)C)CC1=O`, under setting [1], the “scaled lipid accumulation score” value was inactive: ≤ 0.
In the case of `NCc1cccnc1`, the “scaled lipid accumulation score” value under setting [1] is inactive: 0.039.
For the molecule `NC(CP(=O)(O)O)C(=O)O` (stereo unspecified), under setting [1], the “scaled lipid accumulation score” value is inactive: 0.082.
For `CN[C@@H]1[C@@H](O)[C@@H](O[C@@H]2[C@@H](O)[C@H](O[C@H]3O[C@H](CN)CC[C@H]3N)[C@@H](N)C[C@H]2N)OC[C@]1(C)O.CN[C@@H]1[C@@H](O)[C@@H](O[C@@H]2[C@@H](O)[C@H](O[C@H]3O[C@H]([C@@H](C)N)CC[C@H]3N)[C@@H](N)C[C@H]2N)OC[C@]1(C)O.CN[C@@H]1[C@@H](O)[C@@H](O[C@@H]2[C@@H](O)[C@H](O[C@H]3O[C@H]([C@@H](C)NC)CC[C@H]3N)[C@@H](N)C[C@H]2N)OC[C@]1(C)O` [Gentamicin sulfate], the “scaled lipid accumulation score” value runs as follows: (library stock concentration: 3.5 mM) inactive: ≤ -0.001; under setting [1], inactive: 0.022.
Regarding `CN[C@@H]1[C@@H](O)[C@@H](O[C@@H]2[C@@H](O)[C@H](O[C@H]3O[C@H](CN)CC[C@H]3N)[C@@H](N)C[C@H]2N)OC[C@]1(C)O.CN[C@@H]1[C@@H](O)[C@@H](O[C@@H]2[C@@H](O)[C@H](O[C@H]3O[C@H]([C@@H](C)N)CC[C@H]3N)[C@@H](N)C[C@H]2N)OC[C@]1(C)O.CN[C@@H]1[C@@H](O)[C@@H](O[C@@H]2[C@@H](O)[C@H](O[C@H]3O[C@H]([C@@H](C)NC)CC[C@H]3N)[C@@H](N)C[C@H]2N)OC[C@]1(C)O` [Gentamicine sulfate], the “scaled lipid accumulation score” value is inactive: ≤ 0.
For the molecule `CN1CCc2cc(O)cc3c2[C@H]1Cc1ccc(O)c(O)c1-3` [R(-)-2,10,11-Trihydroxyaporphine hybrobromide], the “scaled lipid accumulation score” value under setting [1] was inactive: ≤ -0.07.
For the molecule `Cn1c(CCCC(=O)O)nc2cc(N(CCCl)CCCl)ccc21` [Bendamustine HCl], the “scaled lipid accumulation score” value reads like this: under setting [2], inactive: ≤ 0; under setting [1], inactive: ≤ 0.
`Cn1c(CCCC(=O)O)nc2cc(N(CCCl)CCCl)ccc21` [Bendamustine hydrochloride]: under setting [1], the “scaled lipid accumulation score” value is inactive: 0.247.
For `COc1ccc2c(c1O)-c1c(OC)c(OC)cc3c1[C@H](C2)N(C)CC3` [S-isocorydine (+)], the “scaled lipid accumulation score” value under setting [1] is inactive: ≤ 0.
For `COc1ccc2c(c1O)-c1c(OC)c(OC)cc3c1[C@H](C2)N(C)CC3` [Isocorydine (+)], the “scaled lipid accumulation score” value was inactive: 0.076.
Consider `NC(=O)c1cc([N+](=O)[O-])cc([N+](=O)[O-])c1` [Nitromide], for which the “scaled lipid accumulation score” value (library stock concentration: 9.5 mM) was inactive: ≤ -0.001 and the “scaled lipid accumulation score” value under setting [1] is inactive: ≤ 0.
As to `O=C1CC[C@@]2(O)[C@H]3Cc4ccc(O)c5c4[C@@]2(CCN3CC2CC2)[C@H]1O5` [Naltrexone HCl], the “scaled lipid accumulation score” value runs as follows: under setting [2], inactive: ≤ 0; under setting [3], inactive: ≤ -0.006; under setting [1], inactive: 0.025.
Turning to `O=C1CC[C@@]2(O)[C@H]3Cc4ccc(O)c5c4[C@@]2(CCN3CC2CC2)[C@H]1O5` [Naltrexone hydrochloride dihydrate], the “scaled lipid accumulation score” value is inactive: ≤ 0.
Turning to `O=C1CC[C@@]2(O)[C@H]3Cc4ccc(O)c5c4[C@@]2(CCN3CC2CC2)[C@H]1O5` [Naltrexone hydrochloride], the “scaled lipid accumulation score” value runs as follows: under setting [3], inactive: 0.019; under setting [1], inactive: ≤ -0.045 and inactive: ≤ -0.027.
Take `O=C1Nc2ccc(Cl)cc2C(c2ccccc2Cl)=NC1O` (stereo unspecified) [Lorazepam]: the “scaled lipid accumulation score” value under setting [1] was inactive: ≤ 0.
Regarding `C[C@@H]1O[C@@H](O[C@H]2C[C@@H](O)[C@]3(CO)[C@H]4[C@H](O)C[C@]5(C)[C@@H](C6=CC(=O)OC6)CC[C@]5(O)[C@@H]4CC[C@]3(O)C2)[C@H](O)[C@H](O)[C@H]1O` [Ouabain], under setting [1], the “scaled lipid accumulation score” value was active: 1.13.
As for `[O-][n+]1ccccc1[S-].[O-][n+]1ccccc1[S-].[Zn+2]` [Pyrithione zinc], the “scaled lipid accumulation score” value is, setting by setting: (library stock concentration: 6.3 mM) inactive: 0.435; under setting [1], inactive: 0.127.
Regarding `CO[C@H]1CC[C@@H](O[C@H]2C[C@H]([C@]3(C)CC[C@]4(C[C@H](O)[C@@H](C)[C@@H]([C@@H](C)/C=C(\C)C(=O)[C@H](C)C[C@H](C)C(=O)O)O4)O3)O[C@]3(O[C@@H]([C@H]4O[C@@](O)(CO)[C@H](C)C[C@@H]4C)C[C@@H]3C)[C@@H]2C)O[C@@H]1C` [Nanchangmycin], the “scaled lipid accumulation score” value is, setting by setting: under setting [2], active: 1.27; under setting [1], inactive: 0.663.
In the case of `O=C(NC(COc1ccc2[nH]c(=O)[nH]c2c1)c1ccccc1)c1cccn(Cc2ccc(F)c(F)c2)c1=O` (stereo unspecified), the “scaled lipid accumulation score” value by setting is: (library stock concentration: 80 uM) inactive: ≤ 0; (library stock concentration: 400 uM) inactive: ≤ 0; under setting [4], inactive: ≤ 0; under setting [1], inactive: ≤ 0.
As to `COc1ccc2c(c[n+](C)c3c4cc5c(cc4ccc23)OCO5)c1OC.Cl` [Chelerythrine chloride], under setting [4], the “scaled lipid accumulation score” value was active: 1.1.
For the molecule `O[C@H]1[C@H](O)[C@@H](O)CN2CC[C@H](O)[C@H]12` [Castanospermine], the “scaled lipid accumulation score” value reads like this: under setting [1], inactive: ≤ 0; (library stock concentration: 26.4 mM) inactive: 0.125.
